{"source": "PubChem BioAssay AID504332", "about": "(National Center for Advancing Translational Sciences (NCATS), 2011)", "note": "Out of some 350,000 compounds screened, about 31,000 (8.9%) were called active. The shares of active, inactive and inconclusive entries below differ from those in the screen. The call rests on the fitted dose curve; in most records, active means well fitted inhibition curve with a large enough effect; inconclusive means small, poorly fitted or top-dose-only effect; inactive means no such curve, though single readings can be large or run the other way. Where the call is inconclusive, the potency comes from a doubtful curve fit. On the % scale 0 is the no-effect control and ±100 the full control effect; potency means the concentration at half of the fitted maximal effect; tags describe the fitted curve by direction and shape."}
{"biological_target": "Histone-lysine N-methyltransferase EHMT2 (Homo sapiens) (UniProt Q96KQ7)", "sequence (Q96KQ7 whole entry, looked up)": "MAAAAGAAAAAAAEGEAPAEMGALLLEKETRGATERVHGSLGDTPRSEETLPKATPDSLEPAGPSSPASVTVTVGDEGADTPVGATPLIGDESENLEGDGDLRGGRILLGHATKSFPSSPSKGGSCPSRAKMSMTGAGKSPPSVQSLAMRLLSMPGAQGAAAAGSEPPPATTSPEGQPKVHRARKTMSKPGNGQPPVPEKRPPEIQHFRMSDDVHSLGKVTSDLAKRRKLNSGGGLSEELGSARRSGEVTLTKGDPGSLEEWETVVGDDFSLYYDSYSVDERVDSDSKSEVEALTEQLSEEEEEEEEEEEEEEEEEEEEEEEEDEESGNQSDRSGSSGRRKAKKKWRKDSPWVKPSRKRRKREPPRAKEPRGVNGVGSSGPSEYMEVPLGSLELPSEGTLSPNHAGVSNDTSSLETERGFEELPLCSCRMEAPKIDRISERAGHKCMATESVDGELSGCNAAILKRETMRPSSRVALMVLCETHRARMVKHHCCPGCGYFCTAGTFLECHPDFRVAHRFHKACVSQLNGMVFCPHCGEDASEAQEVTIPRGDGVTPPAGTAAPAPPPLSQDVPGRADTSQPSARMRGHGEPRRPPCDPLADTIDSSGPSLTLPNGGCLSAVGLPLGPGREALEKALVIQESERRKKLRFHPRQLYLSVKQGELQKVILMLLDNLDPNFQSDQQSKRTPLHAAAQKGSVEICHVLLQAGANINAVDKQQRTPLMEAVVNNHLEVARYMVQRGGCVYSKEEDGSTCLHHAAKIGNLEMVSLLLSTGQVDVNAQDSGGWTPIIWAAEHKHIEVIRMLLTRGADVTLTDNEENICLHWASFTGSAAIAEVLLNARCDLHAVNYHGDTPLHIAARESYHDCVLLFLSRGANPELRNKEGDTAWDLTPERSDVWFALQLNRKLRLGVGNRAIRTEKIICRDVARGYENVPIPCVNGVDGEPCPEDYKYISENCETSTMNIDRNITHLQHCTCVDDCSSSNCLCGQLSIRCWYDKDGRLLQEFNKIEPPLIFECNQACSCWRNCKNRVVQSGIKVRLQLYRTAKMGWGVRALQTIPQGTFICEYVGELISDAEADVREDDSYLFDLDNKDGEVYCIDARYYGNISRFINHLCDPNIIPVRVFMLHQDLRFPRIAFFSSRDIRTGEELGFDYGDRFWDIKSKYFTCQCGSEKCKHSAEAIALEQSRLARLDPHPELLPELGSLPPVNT", "assay": "qHTS Assay for Inhibitors of Histone Lysine Methyltransferase G9a; further: nearly all actives have a fitted effect of over 75% in size", "details": "G9a H3K9 monomethylation, AlphaScreen, 2 h; activity, negative = inhibition: at 59 µM (top of the series) unless noted", "how_it_was_run": "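Chemiluminescent proximity detection of H3K9 monomethylation, read after 10 min bead incubation in the dark. Reaction: 20 nM G9a, 500 nM biotin-H3K9 peptide, 20 uM SAM cofactor, 2 h, room temperature, following 15 min enzyme-compound preincubation.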"}
{"smiles": "Cc1cc(OCC(=O)N2CCN(CCc3ccccn3)CC2)cc(C)c1Cl", "activity, negative = inhibition": "inactive: -22.8%"}
{"smiles": "Oc1cccc2cccnc12", "Potency": "inactive"}
{"smiles": "COc1ccc2c(c1O)-c1cccc3c1C(C2)N(C)CC3", "note": "(stereo not drawn)", "activity, negative = inhibition": "inactive: 11.5% [at 12.7 µM]"}
{"smiles": "O=C(O)c1ccccc1NS(=O)(=O)c1cccc(N=Nc2c(O)[nH]c(=S)[nH]c2=O)c1", "Potency": "active: 50.1 µM"}
{"smiles": "COc1cc(CN2CCN(C(=O)COc3ccccc3)CC2)cc(OC)c1OC", "activity, negative = inhibition": "inconclusive: -118% [inhibitor]"}
{"smiles": "CCOc1ccc(CN(CCc2ccc3c(c2)OCO3)Cc2cccc(C)c2)cc1", "Potency": "active: 0.891 µM"}
{"smiles": "C[N+](C)(C)CCc1ccc(O)cc1", "activity, negative = inhibition": "inconclusive: -81.8% [inhibitor]"}
{"smiles": "CC(C)(O)C(Cl)(Cl)Cl", "Potency": "inconclusive: 17.8 µM [inhibitor, partial curve, poor fit]"}
{"smiles": "CCOC(=O)C1=C(C)OC(N)=C(C(=O)OCC)C12C(=O)Nc1ccc(Br)cc12", "note": "(stereo not drawn)", "activity, negative = inhibition": "inactive: 4.39% [at 2.33 µM]"}
{"smiles": "Fc1ccc(CCNCc2cccc(Cl)c2)cc1", "activity, negative = inhibition": "inactive: 3.45% [at 0.501 µM]"}
{"smiles": "CCN1CCN(Cc2cccnc2)CC1", "Potency": "inconclusive: 25.1 µM [inhibitor, full curve]"}
{"smiles": "CN1C(=O)NC(=O)/C(=C/c2ccc([N+](=O)[O-])s2)C1=O", "Potency": "active: 7.08 µM"}
{"smiles": "CCN(CC)C(=O)c1ccc(NC(=O)CCn2nc(-c3ccc(C)cc3)c3ccccc3c2=O)cc1", "Potency": "inconclusive: 39.8 µM [inhibitor, partial curve, poor fit]"}
{"smiles": "COc1ccc(C(O)P(=O)(OCC(C)C)c2ccc(N(C)C)cc2)c(OC)c1", "note": "(stereo not drawn)", "Potency": "inconclusive: 79.4 µM [inhibitor, single point]"}
{"smiles": "CCOC(=O)C1CCN(/C=C2/C(=O)NC(=O)N(Cc3ccco3)C2=O)CC1", "Potency": "inconclusive: 22.4 µM [inhibitor, single point]"}
{"smiles": "CCOC(=O)c1c(C)n(CC(O)CN2CCOCC2)c2cc(Br)c(OC)cc12", "note": "(stereo not drawn)", "Potency": "inconclusive: 39.8 µM [inhibitor, partial curve, poor fit]"}
{"smiles": "COc1cc(CN2CCc3nc(N4CCN(c5ccccn5)CC4)ncc3C2)cc(OC)c1OC", "Potency": "inconclusive: 39.8 µM [inhibitor, single point]"}
{"smiles": "Cn1c(O)c(/C=C/C=Nc2ccccc2)c(=O)n(C)c1=S", "Potency": "active: 44.7 µM"}
{"smiles": "C[N+](C)(C)CC#CCOC(=O)Nc1cccc(Cl)c1", "activity, negative = inhibition": "inactive: 26.3% [at 12.7 µM]"}
{"smiles": "COc1ccc(CN2CCN(C(=O)COc3ccccc3)CC2)c(OC)c1", "Potency": "active: 3.55 µM"}
{"smiles": "NC(=O)C[N+]1(CC#CC(O)(c2ccccc2)c2ccccc2)CCCC1", "Potency": "active: 35.5 µM"}
{"smiles": "O=C1NC(=O)C(CCc2ccncc2)(CCc2ccncc2)C(=O)N1CCc1ccc(F)cc1", "activity, negative = inhibition": "inactive: -23.9% [at 102 µM]"}
{"smiles": "COc1ccc(P2(=O)Nc3ccccc3N2)cc1", "Potency": "inconclusive: 89.1 µM [inhibitor, single point]"}
{"smiles": "CC(=O)C(Sc1ncnc2c1nnn2-c1ccc(F)cc1)C(=O)N(C)C", "note": "(stereo not drawn)", "Potency": "inconclusive: 2.51 µM [inhibitor, partial curve, poor fit]"}
{"smiles": "CN1C[C@@H](NS(=O)(=O)N(C)C)C[C@@H]2c3cccc4c3c(cn4C)C[C@H]21", "Potency": "inconclusive: 31.6 µM [inhibitor, single point]"}
{"smiles": "CCOP(=O)(OCC)C1(O)C(=O)Nc2ccc(Br)cc21", "note": "(stereo not drawn)", "Potency": "active: 17.8 µM"}
{"smiles": "COc1ccccc1CN1CCN(C(=O)COc2ccc3ccccc3c2)CC1", "Potency": "active: 8.91 µM"}
{"smiles": "Nc1c(C(=O)NCCN2CCOCC2)c2nc3ccccc3nc2n1Cc1ccco1", "activity, negative = inhibition": "inactive: 18% [at 102 µM]"}
{"smiles": "CC(C)(C)c1ccc(C(=O)NC(=S)Nn2cnnc2)cc1", "Potency": "active: 31.6 µM"}
{"smiles": "CC1(C(O)(C#CCN2CCCCC2)c2ccccc2)CCCC1", "note": "(stereo not drawn)", "Potency": "inconclusive: 89.1 µM [inhibitor, single point]"}
{"smiles": "C[N+]1(C)[C@@H]2CC[C@H]1CC(OC(=O)C(c1ccccc1)c1ccccc1)C2", "note": "(stereo partly drawn)", "Potency": "inconclusive: 89.1 µM [inhibitor, single point]"}
{"smiles": "O=C1NC(=S)N(C2CC2)C(=O)/C1=C/c1ccc2c(c1)CCN2CCCCl", "Potency": "active: 11.2 µM"}
{"smiles": "Cn1c(O)c(C(=O)c2ccccc2F)c(=O)n(C)c1=O", "Potency": "active: 11.2 µM"}
{"smiles": "CCOP(=S)(OCC)SCC(=O)NC(C)(CC)C(=O)O", "note": "(stereo not drawn)", "Potency": "inconclusive: 89.1 µM [inhibitor, single point]"}
{"smiles": "CC1(C)C[C@H]2C=C(C=O)[C@]3(C=O)C[C@]3(C)[C@H]2C1", "Potency": "inconclusive: 79.4 µM [inhibitor, partial curve, poor fit]"}
{"smiles": "O=c1[nH]c(=O)n(C2CCCCC2)c(O)c1C1NCCc2ccccc21", "note": "(stereo not drawn)", "Potency": "inconclusive: 0.891 µM [inhibitor, partial curve, poor fit]"}
{"smiles": "NNC(=O)c1nc[nH]c1C(=O)Nc1ccc(Cl)cc1C(=O)c1ccccc1", "Potency": "inconclusive: 89.1 µM [inhibitor, single point]"}
{"smiles": "Cc1ccccc1Nc1c(-c2ccc(Br)cc2O)nc2sccn12", "Potency": "inconclusive: 39.8 µM [inhibitor, single point]"}
{"smiles": "COc1cccc(CNC2CN3CCC2CC3)c1OC", "note": "(stereo not drawn)", "Potency": "inconclusive: 89.1 µM [inhibitor, single point]"}
{"smiles": "COC(=O)c1ccc(CC(C(=O)c2ccccc2)N(C)C)cc1", "note": "(stereo not drawn)", "Potency": "inconclusive: 70.8 µM [inhibitor, single point]"}
{"smiles": "CC(NS(=O)(=O)OCC(Cl)(Cl)Cl)c1ccccc1", "note": "(stereo not drawn)", "Potency": "inconclusive: 0.891 µM [inhibitor, partial curve, poor fit]"}
{"smiles": "CC(C)(C)n1cccc1/C=C1\\C(=O)NC(=O)N(c2ccccc2)C1=O", "Potency": "inconclusive: 7.94 µM [inhibitor, full curve]"}
{"smiles": "O=[N+]([O-])c1cnc2ccc3ccccc3c2c1", "Potency": "active: 50.1 µM"}
{"smiles": "CC(=O)CC(c1ccccc1[N+](=O)[O-])c1c(O)c2ccccc2oc1=O", "note": "(stereo not drawn)", "Potency": "active: 50.1 µM"}
{"smiles": "Cc1ccc2c(c1)C1CN(C)CCC1N2C(=O)Cc1cccs1", "note": "(stereo not drawn)", "Potency": "active: 79.4 µM"}
{"smiles": "CC(N)[C@H](O)c1ccc(O)c(O)c1", "note": "(stereo partly drawn)", "Potency": "active: 14.1 µM"}
{"smiles": "O=C(Cc1ccccc1)N1CCN(CC2CC3C=CC2C3)CC1", "note": "(stereo not drawn)", "Potency": "inconclusive: 22.4 µM [inhibitor, single point]"}
{"smiles": "CCN(CC)C(=O)c1ccc(NC(=O)COc2ccccc2F)cc1", "Potency": "inconclusive: 89.1 µM [inhibitor, partial curve, poor fit]"}
{"smiles": "CCCc1[nH]nc2c1C1(C(=O)N(Cc3ccccc3)c3ccccc31)C(C(=O)OC)=C(N)O2", "note": "(stereo not drawn)", "Potency": "active: 50.1 µM"}
{"smiles": "O=c1[nH]cc(COCC(F)(F)C(F)(F)C(F)(F)F)c(=O)[nH]1", "Potency": "inconclusive: 44.7 µM [inhibitor, partial curve]"}
{"smiles": "CC(=O)C1C2c3ccccc3O[C@@]1(C)N=c1s/c(=C/c3ccoc3)c(=O)n12", "note": "(stereo partly drawn)", "Potency": "inconclusive: 25.1 µM [inhibitor, single point]"}
{"smiles": "COc1ccc(CN2C(=O)NC(=O)/C(=C\\c3ccc(OC)c(OC)c3OC)C2=O)cc1", "Potency": "inconclusive: 39.8 µM [inhibitor, single point]"}
{"smiles": "Clc1cccc(CNCCc2ccc3c(c2)OCO3)c1", "Potency": "active: 44.7 µM"}
{"smiles": "COc1cc2c3cc1Oc1cc(ccc1O)C[C@@H]1c4c(cc(OC)c(O)c4Oc4ccc(cc4)C[C@H]3N(C)CC2)CCN1C", "Potency": "inconclusive: 79.4 µM [inhibitor, single point]"}
{"smiles": "CC1C(c2cccs2)=[N+]([O-])C(C)(C(=O)c2cccs2)N1O", "note": "(stereo not drawn)", "Potency": "inconclusive: 79.4 µM [inhibitor, single point]"}
{"smiles": "CCC(C(=O)OCCOCCN(CC)CC)c1ccccc1", "note": "(stereo not drawn)", "Potency": "inconclusive: 50.1 µM [inhibitor, partial curve, poor fit]", "activity, negative = inhibition": "inconclusive: -51.9% [inhibitor] [at 2.33 µM]"}
{"smiles": "CCCCn1c(NS(=O)(=O)c2ccc(C)cc2)c(C(=O)OCC)c2nc3ccccc3nc21", "activity, negative = inhibition": "inactive: -10%"}
{"smiles": "CCN1CCN(c2cc(=O)n3ccccc3n2)CC1", "Potency": "inconclusive: 70.8 µM [inhibitor, partial curve, poor fit]"}
{"smiles": "CCCCn1c(O)c(C=NC2CCCCC2N)c(=O)[nH]c1=O", "note": "(stereo not drawn)", "Potency": "active: 3.98 µM"}
{"smiles": "C[N+]1(CC(O)c2ccccc2)CCCCCC1", "note": "(stereo not drawn)", "Potency": "active: 50.1 µM"}
{"smiles": "S=c1[nH]nc(C2CC2)n1Cc1ccco1", "Potency": "active: 2.51 µM"}
{"smiles": "CCNC(=S)N(C)CCc1cc2c(c(OC)c1C=C1C(=O)N(C)C(=O)N(C)C1=O)OCO2", "Potency": "inconclusive: 0.631 µM [inhibitor, single point]"}
{"smiles": "Nc1ncc([N+](=O)[O-])s1", "activity, negative = inhibition": "inactive: -1.86% [at 0.501 µM]"}
{"smiles": "O=C(OCCN1CCCCC1)C(O)(c1ccccc1)c1ccccc1", "Potency": "inconclusive: 3.55 µM [inhibitor, partial curve, poor fit]"}
{"smiles": "C[C@]12CCC3C(C=CC4=CC(=O)CC[C@]43C)C1CC[C@]2(O)CCC(=O)O", "note": "(stereo partly drawn)", "activity, negative = inhibition": "inactive: 5.73% [at 2.33 µM]"}
{"smiles": "Cc1ncoc1C(=O)NCCC(c1ccccc1)c1ccccc1", "Potency": "inconclusive: 56.2 µM [inhibitor, partial curve]"}
{"smiles": "CCN1CCN(c2nc3c(c(=O)[nH]2)CCCC3)CC1", "Potency": "inconclusive: 70.8 µM [inhibitor, partial curve, poor fit]"}
{"smiles": "O=C(O)c1cccc2c1NC(c1cccc([N+](=O)[O-])c1)C1CC(Sc3ccccc3[N+](=O)[O-])C(Cl)C21", "note": "(stereo not drawn)", "Potency": "active: 15.8 µM"}
{"smiles": "Clc1ccc(N2CCN(Cc3ccccc3Cl)CC2)cc1", "Potency": "active: 25.1 µM"}
{"smiles": "O=c1[nH]c(=S)[nH]c(O)c1/C=N/N1CCOCC1", "Potency": "active: 50.1 µM"}
{"smiles": "O=c1[nH]c(=S)n(Cc2ccc(F)cc2)c(O)c1/C=N/N1CCCCCC1", "Potency": "inconclusive: 22.4 µM [inhibitor, single point]"}
{"smiles": "CN(C)/C=C1/C(=O)NC(=O)N(CCNc2ncc(C(F)(F)F)cc2Cl)C1=O", "Potency": "active: 44.7 µM"}
